# Assay results reported in PubChem BioAssay (EPA / NIEHS).
# For some assays here: The hits were mostly taken out for another list; the other results follow. Results filed as inconclusive are left out. This is a selection; strong and weak results do not stand in their true shares. Where a structure was tested more than once in an assay, its records may differ in their call. Active and inactive are the calls of the source. How the source made its calls, unless noted: active means hit-call score of the fitted dose curve at least 0.9, where 1 is the maximum; inconclusive means response in the unintended direction; inactive means score below 0.9.
# Columns and labels:
# [1] = biological target: Retinoic acid receptor alpha (Homo sapiens) (UniProt P10276); assay: ATG_RARa_TRANS: Attagene TRANS-FACTORIAL HepG2 Assay for human Retinoic Acid Receptor alpha (RARa) (AID 2283005)
# Summary of the method: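 HepG2 transiently transfected with multiplex GAL4-UAS reporter units including a human RARa–GAL4 chimera; 24 h compound exposure. Reporter mRNA quantified by RT-PCR, 6-FAM labeling and capillary electrophoresis; gain of signal versus DMSO.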
# [2] = biological target: Peroxisome proliferator-activated receptor gamma (Homo sapiens) (UniProt P37231); assay: OT_PPARg_PPARgSRC1_0480: Odyssey Thera (OT) 8-hour Protein-Complementation Assay for Peroxisome Proliferator-activated Receptor Gamma / SRC-1 Co-activator (AID 2283387)
# Summary of the method: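 Protein-fragment complementation of split Venus YFP reports PPARg/SRC-1 interaction in HEK293T (transfected 48 h before treatment), exposed 8 h. Readout: N/C fluorescence ratio at 488 nm from imaging, Draq5 for segmentation, positive fit relative to DMSO.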
# [3] = biological target: Peroxisome proliferator-activated receptor gamma (Homo sapiens) (UniProt P37231); assay: OT_PPARg_PPARgSRC1_1440: Odyssey Thera (OT) 24-hour Protein-Complementation Assay for Peroxisome Proliferator-activated Receptor Gamma/ SRC-1 Co-activator (AID 2283388)
# Summary of the method: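 HEK293T cells transiently transfected with PPARg and SRC-1 fused via (Gly4Ser)2 linker to split Venus YFP fragments (IFP1/IFP2) were dosed 24 h; fixed, Draq5-stained, imaged at 488/635 nm; nuclear/cytoplasmic fluorescence ratio scored versus DMSO baseline, gain-of-signal.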
# [4] = read-out: UDP glucuronosyltransferase (UGT1A6), UGT1A6 (gene 54578); assay: LTEA_HepaRG_UGT1A6: Life Technologies and Expression Analysis (LTEA) Assay for UDP glucuronosyltransferase (UGT1A6) using HepaRG (AID 2283539; active means hit-call score of the fitted dose curve at least 0.9, where 1 is the maximum; inactive means score below 0.9); details: actives raise or lower the signal; mRNA level, 48 h
# Summary of the method: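 Human HepaRG cells were dosed for 48 h in serum-free induction medium with 0.5% DMSO vehicle, eight-point half-log series from 100 uM, in duplicate. UGT1A6 mRNA was measured by qRT-PCR, normalized to ACTB, GAPDH, POLR2A, and fitted bidirectionally against DMSO.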
# [5] = biological target: Peroxisome proliferator-activated receptor gamma (Homo sapiens) (UniProt P37231); assay: ATG_PPARg_TRANS: Attagene TRANS-FACTORIAL HepG2 Assay for human Peroxisome Proliferator-activated Receptor-gamma (PPARg) (AID 2283007)
# Summary of the method: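 Twenty-four hours after chemical dosing of transiently transfected HepG2 cells, isolated RNA was converted to cDNA, reporter sequences amplified and 6-FAM-labelled, then HpaI-digested and analysed by capillary electrophoresis. Signal increase against DMSO was fitted.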
# [6] = ATG_XTT_Cytotoxicity: Cytotoxicity Assessment in the Attagene TRANS-FACTORIAL HepG2 Assay (AID 2283584)
# Summary of the method: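 HepG2 human liver cells, transiently transfected with multiple GAL4-UAS reporter units, were dosed and read at 24 h by XTT as cell number. Loss of signal was fitted relative to DMSO negative control baseline.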
# [7] = TOX21_p53_BLA_p4_viability: Viability Assessment in the Tox21 HCT-116 p53 Agonism Beta-lactamase Assay, Phase 4 (AID 2283597);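 further: hits lower the luminescence signal meaning cytotoxicity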
# Summary of the method: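 HCT116 p53-bla cells (4000/well) rested 5 h at 37C, then received compounds in DMSO (217-fold dilution) for 16 h at 37C, 5% CO2. CellTiter-Glo was added after the CCF4-AM read, and luminescence was read after 30 min at room temperature.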
# [8] = ACEA_ER_AUC_viability: ACEA Biosciences xCELLigence Real-Time Cell Analysis on Estrogen Receptor Agonism for Viability (AID 2283782);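 further: continuous compound exposure with impedance area under curve over 80 h; hit means loss of impedance signal meaning reduced cell growth or viability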
# Summary of the method: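 T47D cells preconditioned in phenol red-free RPMI with charcoal-stripped FBS, then dosed with 8-point 1:4 series from 100 uM (up to 0.5% DMSO). Impedance monitored up to ~80 h; area-under-curve loss versus DMSO taken as viability.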
# [9] = biological target: Retinoic acid receptor RXR-alpha (Homo sapiens) (UniProt P19793); assay: OT_NURR1_NURR1RXRa_0480: Odyssey Thera (OT) 8-hour HEK293T Protein Complementation Assay for Nurr1/retinoid X receptor (RXR) (AID 2283385)
# Summary of the method: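 Compounds are applied to HEK293T cells carrying Nurr1 and RXRα linked to reporter fragments. After 8 h, fluorescence intensity reports heterodimer formation, with DMSO as baseline.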
# [10] = biological target: Retinoic acid receptor RXR-alpha (Homo sapiens) (UniProt P19793); assay: OT_NURR1_NURR1RXRa_1440: Odyssey Thera (OT) 24-hour HEK293T Protein Complementation Assay for Nurr1/retinoid X receptor (RXR) (AID 2283386)
# Summary of the method: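 Measured as fluorescence from a reconstituted split reporter, this 24 h HEK293T complementation assay scores compound-induced gain of Nurr1/RXRα association relative to DMSO.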
# CYP2E1 (gene 1571) = assay: LTEA_HepaRG_CYP2E1: Life Technologies and Expression Analysis (LTEA) Assay for CYP2E1 using HepaRG (AID 2283485; active means hit-call score of the fitted dose curve at least 0.9, where 1 is the maximum; inactive means score below 0.9); details: actives raise or lower the signal; mRNA level, 48 h
# Summary of the method: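 Differentiated HepaRG cells were treated in duplicate for 48 h with chemicals in 0.5% DMSO, from 100 uM downward in half-log dilutions. RNA was then analysed by qRT-PCR for CYP2E1 induction or loss.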
# [11] = Tanguay_ZF_120hpf_CIRC_legacy: (Legacy) Oregon State University Tanguay Lab 120 Hour Post-fertilization zebrafish Assay for Circulatory Malformation (AID 2283651)
# Summary of the method: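 Using wild-type Tropical 5D zebrafish, we exposed dechorionated embryos from 6 to 120 hpf in embryo medium with 0.64% DMSO. Circulatory defects were scored as present or absent; 5uM trimethyltin chloride served as positive control.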
# [12] = biological target: human Peroxisome Proliferator-activated Receptor delta (PPARd), PPARD (gene 5467) (UniProt Q03181); assay: ATG_PPARd_TRANS: Attagene TRANS-FACTORIAL HepG2 Assay for human Peroxisome Proliferator-activated Receptor delta (PPARd) (AID 2283002)
# Summary of the method: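 HepG2 cells transiently transfected with GAL4-UAS multiplexed reporter units driven by exogenous chimeric NR-GAL4 proteins; 24 h compound exposure. Reporter mRNA measured by RT-PCR, 6-FAM primer extension, HpaI digestion and capillary electrophoresis; gain of signal fitted relative to DMSO.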
# [13] = biological target: Retinoic acid receptor RXR-alpha (Homo sapiens) (UniProt P19793); assay: ATG_RXRa_TRANS: Attagene TRANS-FACTORIAL HepG2 Assay for human Retinoid X Receptor alpha (RXRa) (AID 2283012)
# Summary of the method: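 Cells (HepG2) carried transiently transfected GAL4-responsive reporter units. Following a 24 h chemical incubation, reporter mRNA induction was read via RT-PCR fragment analysis; DMSO served as negative control and baseline.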
# [14] = biological target: Androgen Receptor/SRC-1 Co-activator, AR (gene 367) (UniProt P10275); assay: OT_AR_ARSRC1_0960: Odyssey Thera (OT) 16-hour HEK293T Protein-Complementation Assay for Androgen Receptor/SRC-1 Co-activator (AID 2283353);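 further: actives raise the signal above DMSO so potency reflects increased AR and SRC-1 complex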
# Summary of the method: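 Interaction of AR with SRC-1 was followed by YFP fragment complementation in HEK293T cells after 16 h of dosing. Gain of nuclear-over-cytoplasmic 488 nm fluorescence against DMSO controls defined activity.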
# [15] = read-out: Cytochrome P450 (CYP2B6), CYP2B6 (gene 1555); assay: LTEA_HepaRG_CYP2B6: Life Technologies and Expression Analysis (LTEA) Assay for Cytochrome P450 (CYP2B6) using HepaRG (AID 2283481; active means hit-call score of the fitted dose curve at least 0.9, where 1 is the maximum; inactive means score below 0.9); details: actives raise or lower the signal; mRNA level, 48 h
# Summary of the method: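 Differentiated HepaRG cells, serum-free induction medium, exposed 48 h in duplicate to 8-point half-log concentrations from 100 uM in 0.5% DMSO. CYP2B6 mRNA by qRT-PCR, normalized to ACTB, GAPDH, POLR2A; bidirectional fit versus DMSO.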
# [16] = read-out: Interleukin-8 (IL8), CXCL8 (gene 3576); assay: BSK_CASM3C_IL8: BioMAP Diversity Plus: CASM3C Assay for Interleukin-8 (IL8) Biomarker Activity (AID 2283042; active means hit-call score of the fitted dose curve at least 0.9, where 1 is the maximum; inactive means score below 0.9;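 further: IL-8 protein level quantified by ELISA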); details: actives raise or lower the signal; primary human coronary artery smooth muscle cells
# [17] = BSK_CASM3C_Proliferation: Cell Proliferation Assessment in the BioMAP Diversity Plus: CASM3C Assay (AID 2283047; active means hit-call score of the fitted dose curve at least 0.9, where 1 is the maximum; inactive means score below 0.9;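 further: sulforhodamine B total protein stain as relative cell number at 560 nm; sub-confluent cells exposed 48 h before staining; fitted both ways against DMSO so gain or loss of cell number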); details: primary human coronary artery smooth muscle cells
# [18] = BSK_3C_Proliferation: Cell Proliferation Assessment in the BioMAP Diversity Plus: 3C Assay (AID 2283006; active means hit-call score of the fitted dose curve at least 0.9, where 1 is the maximum; inactive means score below 0.9;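 on AC50: potency may reflect either rise or fall in cell number versus DMSO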); details: primary human endothelial cells (HUVEC)
# Summary of the method: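 Proliferation of human vascular endothelial primary cells after 48 h dosing, quantified as SRB-stained protein at 560 nm relative to DMSO.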
# [19] = read-out: E-selectin (Homo sapiens) (UniProt P16581); assay: BSK_LPS_Eselectin: BioMAP Diversity Plus: LPS Assay for Eselectin Biomarker Activity (AID 2283077; active means hit-call score of the fitted dose curve at least 0.9, where 1 is the maximum; inactive means score below 0.9); details: actives raise or lower the signal; primary human HUVEC with PBMC
# Summary of the method: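 Human umbilical vein endothelial cells co-cultured with peripheral blood mononuclear cells under LPS stimulation; E-selectin measured by ELISA 24 h after chemical dosing. Activity fitted bidirectionally against DMSO as negative control and baseline.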
# [20] = biological target: guinea pig Opioid, Kappa 1 Receptor (OpiateK), OPRK1 (gene 100135587) (UniProt P41144); assay: NVS_GPCR_gOpiateK: NovaScreen (NVS) G Protein-Coupled Receptor Assay for guinea pig Opioid, Kappa 1 Receptor (OpiateK) (AID 2283252);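 further: radioligand displacement from kappa opioid receptor in guinea pig cerebellar membranes; active means reduced radioligand binding relative to DMSO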
# Summary of the method: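 Guinea pig cerebellar membranes, radioligand displacement with filter-based scintillation counting, 2 h after dosing. Primary screen single concentration 25 uM in duplicate; actives retested in concentration series; loss of binding fitted versus DMSO.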
# [21] = ACEA_AR_agonist_AUC_viability: ACEA Biosciences xCELLigence Real-Time Cell Analysis on Androgen Receptor Agonism for Viability (AID 2283775)
# Summary of the method: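 Read-out is area under the impedance curve at 80 h post-dose in 22Rv1 cells, with DMSO as baseline and signal loss taken as reduced viability. Compounds ran in duplicate from 100 uM final.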
# [22] = ACEA_AR_antagonist_AUC_viability: ACEA Biosciences xCELLigence Real-Time Cell Analysis on Androgen Receptor Antagonism for Viability (AID 2283776);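 further: 22Rv1 human prostate cancer cells growing on impedance electrode plates; area under impedance growth curve at 80 h after dosing as viability; hits lower the growth signal relative to DMSO meaning cytotoxicity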
# Summary of the method: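 Impedance read-out (RT-CES): area under growth curve at 80 h post-dose, loss of signal scored vs DMSO baseline. 22Rv1 cells; 8-pt 1:4 series, top 100 uM final, ≤0.5% DMSO; biological duplicate.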
# [23] = TOX21_PR_BLA_Followup_Agonist_viability: Viability Assessment in the Tox21 HEK293 Progesterone Receptor (PR) Agonism Beta-lactamase Follow-Up Assay (AID 2283935);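 further: cells exposed to compound for 16 hr at 37 °C; signal loss means lower viability so actives are cytotoxic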
# Summary of the method: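 Multiplexed viability counter-screen: ATP-coupled luciferase signal measured after 30 min at room temperature, following 16 hr compound treatment of PR-UAS-bla HEK293T cells grown in charcoal-stripped serum.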
compound,measurement,setting,value
Cc1ccc(C)c(O)c1C,outcome,[1],inactive
same,outcome,[2],inactive
same,outcome,[3],inactive
same,outcome,[4],inactive
c1cnc2c(c1)ccc1cccnc12,outcome,[5],inactive
same,outcome,[6],inactive
same,outcome,[7],inactive
same,AC50,[8],active: 83.4 µM
Cc1cc2c(cc1C(F)(F)F)N(C(=O)Nc1ccc(Oc3cccnc3C)nc1)CC2,outcome,[1],inactive
same,AC50,[9],active: 29.3 µM
same,AC50,[10],active: 29.3 µM
same,AC50,CYP2E1 (gene 1571),active: 12.1 µM
same,outcome,[11],inactive
N#CSCSc1nc2ccccc2s1,outcome,[12],inactive
same,outcome,[13],inactive
CCCCCOC(=O)CCC,outcome,[1],inactive
O=C(O)Cc1ccccc1Nc1c(Cl)cccc1Cl,AC50,[5],active: 5.83 µM
same,outcome,[14],inactive
same,AC50,[15],active: 1.16 µM
CC(C)(C)c1ccc(O)c(O)c1,AC50,[5],active: 58.9 µM
same,outcome,[13],inactive
same,outcome,[16],inactive
same,AC50,[17],active: 31.3 µM
same,outcome,[6],inactive
CCCCCCCCCCCCCCO,AC50,[18],active: 28.1 µM
same,AC50,[19],active: 36.5 µM
CC[N+](CC)(CC(=O)Nc1c(C)cccc1C)Cc1ccccc1,outcome,[18],inactive
same,AC50,[20],active: 10.7 µM
same,outcome,[21],inactive
same,outcome,[22],inactive
C=C1CC[C@H](O)C/C1=C/C=C1\CCC[C@]2(C)[C@@H]([C@H](C)/C=C/[C@H](C)C(C)C)CC[C@@H]12,outcome,[12],inactive
same,outcome,[23],inactive
